Results from PubChem BioAssay AID588342 (National Center for Advancing Translational Sciences (NCATS), 2011).
In all, about 360,000 compounds went through this assay and about 25,000 (6.9%) were called active. Inconclusive results, whose numbers are uncertain, are shown with a selection of clear calls. Calls follow the shape of the dose curve; as a rule, active = well fitted inhibition curve with a large enough effect; inconclusive = small, poorly fitted or top-dose-only effect; inactive = flat fitted curve, though single readings scatter. Where the call is inconclusive, the potency comes from a doubtful curve fit.

biological target: Luciferin 4-monooxygenase (Photinus pyralis) (UniProt P08659); assay: qHTS profiling assay for firefly luciferase inhibitor/activator using purifed enzyme and Km concentrations of substrates (counterscreen for miR-21 project); conditions: purified FLuc, luminescence inhibition; series mostly up to 57.5 µM; also: nearly all actives have a fitted effect of over 55% in size
Chain of UniProt P08659 (P08659 whole entry, looked up): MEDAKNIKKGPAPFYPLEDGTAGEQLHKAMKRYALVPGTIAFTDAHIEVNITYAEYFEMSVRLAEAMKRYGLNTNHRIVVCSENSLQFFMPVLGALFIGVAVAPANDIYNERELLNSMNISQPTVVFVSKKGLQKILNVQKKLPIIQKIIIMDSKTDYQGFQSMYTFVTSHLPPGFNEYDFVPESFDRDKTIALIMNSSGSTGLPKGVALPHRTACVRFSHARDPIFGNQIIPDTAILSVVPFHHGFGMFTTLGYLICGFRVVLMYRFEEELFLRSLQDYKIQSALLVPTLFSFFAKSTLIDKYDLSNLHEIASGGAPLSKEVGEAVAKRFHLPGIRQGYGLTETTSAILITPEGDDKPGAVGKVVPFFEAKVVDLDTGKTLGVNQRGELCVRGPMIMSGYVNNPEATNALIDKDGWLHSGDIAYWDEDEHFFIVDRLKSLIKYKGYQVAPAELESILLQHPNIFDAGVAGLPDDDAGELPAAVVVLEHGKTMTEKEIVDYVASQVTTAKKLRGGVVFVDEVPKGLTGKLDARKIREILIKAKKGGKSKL
Summary of the method: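 Purified P. pyralis luciferase, 10 nM final, with Km-level 10 uM D-luciferin and 10 uM ATP in 50 mM Tris acetate pH 7.5, 10 mM Mg acetate, 0.01% Tween-20, 0.05% BSA; 6-point qHTS titration about 60 µM downward; luminescence read.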
Potency is read from the fitted curve at half-maximal effect; tags tell the direction and shape of the fitted curve.

Row | SMILES | Potency
1 | COc1ccc(-c2ccnc(SCC(=O)Nc3ccccn3)n2)cc1 | inconclusive: 26.9 µM [inhibitor, single point]
2 | C=CCNC(=O)CCC(=O)NNc1nc2ccccc2c2nc(-c3ccccc3)nn12 | inconclusive: 30.1 µM [inhibitor, single point]
3 | CC/C(=N/N=C(\CC)c1ccccc1)c1ccccc1 | inactive
4 | Cc1nc(Nc2ccc3c(c2)OCCO3)c2oc3ccccc3c2n1 | inconclusive: 23.9 µM [inhibitor, single point]
5 | N#C/C(=C(/O)c1ccc(F)cc1)c1nc2ccccc2s1 | active: 9.53 µM
6 | CCOc1cc(/C=N/NC(=O)c2cc(-c3ccccc3)nc3ccccc23)ccc1O | active: 16.9 µM
7 | Cc1cccc2nc(-c3ccc(Cl)s3)c(Nc3ccc4c(c3)OCCO4)n12 | inconclusive: 13.5 µM [inhibitor, partial curve]
8 | COc1ccccc1CCNC(=O)c1csc2c1CCCC2 | inconclusive: 37.9 µM [inhibitor, single point]
9 | COC(=O)c1sc(NC(=S)NC(=O)c2cccc(C)c2)nc1C | inconclusive: 4.26 µM [inhibitor, partial curve, poor fit]
10 | COc1ccc(C(=O)NCc2nnc(SCC(=O)Nc3nc4ccc(C)cc4s3)o2)cc1OC | inconclusive: 6.01 µM [inhibitor, partial curve, poor fit]
11 | Cc1occc1C(=O)NN=C1C2CC3CC(C2)CC1C3 | inconclusive: 21.3 µM [inhibitor, partial curve, poor fit]
12 | CCCCOC(=O)CCn1[nH]c(=O)c2ccccc2c1=O | inactive
13 | CSc1n[nH]c(NCc2ccc(C)cc2)n1 | active: 23.9 µM
14 | Cc1ccc(S(=O)(=O)N(C)C)cc1NC(=O)/C=C/c1cccs1 | inconclusive: 23.9 µM [inhibitor, single point]
15 | O=C(CSc1nccn1Cc1ccco1)Nc1ccc(OC(F)(F)F)cc1 | inconclusive: 19 µM [inhibitor, partial curve]
16 | COc1cc(/C=C/C(=O)OC2CC3CCC2(C)C3(C)C)ccc1O (stereo unspecified) | inconclusive: 26.9 µM [inhibitor, single point]
17 | Cc1nn(Cc2ccccc2Cl)c(C)c1C(=O)NCCN1C(=O)S/C(=C\c2ccccc2)C1=O | inconclusive: 23.9 µM [inhibitor, partial curve, poor fit]
18 | O=c1c2ccccc2sn1-c1ccc(S(=O)(=O)N2CCCC2)cc1 | active: 4.78 µM
19 | CC(=O)Nc1ccc(NC(=O)CSc2nc3c([nH]c4ccccc43)c(=O)n2-c2ccccc2F)cc1 | inconclusive: 21.3 µM [inhibitor, partial curve, poor fit]
20 | Cc1ccc(CCC(=O)Nc2ccc([N+](=O)[O-])cc2)o1 | inactive
21 | O=C(N=c1nc2ccccn2s1)c1ccccc1 | active: 0.19 µM
22 | Oc1ccccc1OCCOc1ccccc1OCCOc1ccccc1O | inconclusive: 37.9 µM [inhibitor, partial curve, poor fit]
23 | COc1ccc(C)cc1NC(=S)NC(C)c1ccc(OC)c(OC)c1 (stereo unspecified) | inconclusive: 23.9 µM [inhibitor, single point]
24 | Cn1c(SCc2nc3ccccc3s2)nnc1-c1cccs1 | inconclusive: 21.3 µM [inhibitor, partial curve, poor fit]

Row | SMILES | Potency
25 | CCOCC(=O)Nc1nc2ccccc2s1 | active: 23.9 µM
26 | COCCN(CCOC)Cc1c(O)ccc2c1O/C(=C\c1ccc(C)o1)C2=O | inconclusive: 15.1 µM [inhibitor, partial curve, poor fit]
27 | COc1cccc(N2CCN(Cc3ccsc3)CC2)c1 | inconclusive: 37.9 µM [inhibitor, partial curve, poor fit]
28 | Cc1ccc(C(=O)C(O)C(c2ccc(C)cc2)N2CCCCC2)cc1 (stereo unspecified) | inconclusive: 37.9 µM [inhibitor, partial curve, poor fit]
29 | COc1ccc(OC)c(/C=N/N=C(\N)c2nonc2N)c1 | inconclusive: 19 µM [inhibitor, partial curve]
30 | CC(C)Oc1ccc(C(=O)N2CCC(c3nc4ccccc4s3)CC2)cc1 | inconclusive: 37.9 µM [inhibitor, partial curve, poor fit]
31 | Oc1ccccc1CNc1ncc(Br)cc1Br | inconclusive: 23.9 µM [inhibitor, single point]
32 | O=C(O)CC(=O)Nc1ccc(Oc2ccc(C(F)(F)F)cn2)c(Cl)c1 | inconclusive: 37.9 µM [inhibitor, partial curve, poor fit]
33 | O=C1C2C(C(=O)N1c1ccc3c(c1)OCO3)C1C=CC2C12CC2 (stereo unspecified) | active: 16.9 µM
34 | Cc1cc(/C=C(\C#N)C(=O)O)c(C)n1CC(C)C | inconclusive: 23.9 µM [inhibitor, single point]
35 | O=C(O)c1cc(N/N=C/c2cccnc2)ccc1Cl | active: 19 µM
36 | COc1ccc2[nH]c(C(=O)Nc3ccc4c(c3)OCO4)cc2c1 | active: 4.78 µM
37 | COc1ccc(C(=O)Nc2nnc(CCc3ccccc3)s2)c(OC)c1 | inconclusive: 16.9 µM [inhibitor, partial curve, poor fit]
38 | COc1ccc(-n2nnc(-c3nc(-c4ccc5c(c4)OCO5)no3)c2C)cc1Cl | inactive
39 | Cc1nc(NC(=O)/C=C/c2ccco2)sc1C | inconclusive: 2.39 µM [inhibitor, full curve]
40 | Cn1c(CCc2nc3ccccc3[nH]2)nnc1SCC#N | inactive
41 | COc1ccc(/C=N/NC(=O)c2cc[n+]([O-])cc2)cc1 | inconclusive: 30.1 µM [inhibitor, partial curve, poor fit]
42 | C/C(=N/Nc1ccccc1C(=O)O)c1cccs1 | active: 19 µM
43 | Cc1ccc(CNC(=O)C(=O)c2cn(CC(=O)N3CCCC3)c3ccccc23)cc1 | inconclusive: 37.9 µM [inhibitor, single point]
44 | Cc1cccc(/C=C2\Oc3cc(OS(C)(=O)=O)ccc3C2=O)c1 | active: 16.9 µM
45 | CCC1CCCCN1CCCNC(=O)C1CCN(c2nnc(-n3cccc3)s2)CC1 (stereo unspecified) | inactive
46 | COc1ccc(C(=O)NCC(=O)OCc2cc(=O)n3nc(C4CCCCC4)sc3n2)cc1 | inconclusive: 33.8 µM [inhibitor, partial curve, poor fit]
47 | CCCOc1ccc(CNC(=O)Cn2ncc3ccccc32)cc1 | inconclusive: 8.49 µM [inhibitor, partial curve]
48 | C=CCc1cc(Cl)ccc1OCCN1CC(C)OC(C)C1 (stereo unspecified) | inactive

Row | SMILES | Potency
49 | CN(C)S(=O)(=O)c1cccc(C(=O)Nc2ccccc2[N+](=O)[O-])c1 | inconclusive: 37.9 µM [inhibitor, partial curve, poor fit]
50 | CCN(C(=O)CSc1nc(-c2ccc(C(C)C)cc2)no1)c1ccccc1 | active: 9.53 µM
51 | c1ccc(-c2ccc(C3CCCN3)cc2)cc1 (stereo unspecified) | inconclusive: 19 µM [inhibitor, partial curve]
52 | COc1cc(N=c2ssnc2Cl)c(OC)cc1Cl | active: 16.9 µM
53 | COc1ccc(NCc2nnc(SCC(=O)Nc3cc(C(F)(F)F)ccc3Cl)o2)cc1 | active: 16.9 µM
54 | COc1ccc(-n2nnc3c(SCc4ccccc4)ncnc32)cc1 | inconclusive: 9.53 µM [inhibitor, partial curve]
55 | O=C(O)C1=C(Nc2ccccc2)OCC1=O | inconclusive: 23.9 µM [inhibitor, partial curve, poor fit]
56 | COc1ccc(Nc2cc(C(=O)NCCCOC(C)C)c3ccccc3n2)c(OC)c1 | inconclusive: 23.9 µM [inhibitor, partial curve]
57 | Cc1ccc(-n2c(-c3ccc(Br)cc3)nc3c(cnn3-c3ccccc3)c2=O)cc1 | inactive
58 | Cc1cc(C(=O)CSc2nnnn2C)c(C)n1-c1ccc2c(c1)OCCO2 | active: 23.9 µM
59 | Nc1nnc(SCCCC(=O)c2ccc(F)cc2)s1 | inconclusive: 23.9 µM [inhibitor, partial curve, poor fit]
60 | COc1ccc(Nc2ncc(C(=O)Nc3cccc(OC)c3)c3ccccc23)cc1 | inconclusive: 26.9 µM [inhibitor, partial curve, poor fit]
61 | O=C(COc1cccnc1[N+](=O)[O-])c1ccc(Cl)s1 | inconclusive: 21.3 µM [inhibitor, single point]
62 | Cc1cc(C)c2c(N)c(C(=O)c3ccc(Cl)cc3Cl)sc2n1 | inactive
63 | Cc1cccc(NC(=O)c2ccc(S(=O)(=O)N3CCC(C)CC3)cc2)n1 | inactive
64 | Cc1ccc(Cl)cc1N(C)C(=O)c1sc2nc3n(c(=O)c2c1C)CCCC3 | inconclusive: 15.1 µM [inhibitor, partial curve, poor fit]
65 | CCCn1nc(C(=O)Nc2ccc3c(c2)OCCO3)c2ccccc2c1=O | inconclusive: 26.9 µM [inhibitor, single point]
66 | Fc1ccc(-c2cnc[nH]2)cc1 | inconclusive: 26.9 µM [inhibitor, partial curve, poor fit]
67 | Cc1nc(NC(=S)NC(=O)c2ccccc2)sc1C | inconclusive: 2.69 µM [inhibitor, full curve]
68 | O=C(c1cccs1)c1ccc(-c2cccs2)s1 | active: 0.301 µM
69 | CC(C)=C1C2CCC1C1C(=O)N(c3nc(-c4ccccc4)c(C)s3)C(=O)C21 (stereo unspecified) | inactive
70 | CN(Cc1ccccc1)C(=O)c1[nH]cnc1C(=O)Nc1ccc(Cl)cc1 | inconclusive: 30.1 µM [inhibitor, single point]
71 | O=C(COc1ccccc1Br)Nc1ccccc1C(F)(F)F | inconclusive: 37.9 µM [inhibitor, single point]
